Consider 2 molecules from PMC3675359, “GxcC connects Rap and Rac signaling during Dictyostelium development” (BMC Cell Biology, 2013).

Protein sequences, listed by entry. Tags and fused reporters are not part of them.
UniProt P18613: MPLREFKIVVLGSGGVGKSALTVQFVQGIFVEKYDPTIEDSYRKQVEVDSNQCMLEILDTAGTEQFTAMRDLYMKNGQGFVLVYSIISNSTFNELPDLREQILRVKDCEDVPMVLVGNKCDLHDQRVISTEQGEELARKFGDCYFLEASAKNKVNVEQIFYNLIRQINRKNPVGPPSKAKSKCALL
UniProt P15064: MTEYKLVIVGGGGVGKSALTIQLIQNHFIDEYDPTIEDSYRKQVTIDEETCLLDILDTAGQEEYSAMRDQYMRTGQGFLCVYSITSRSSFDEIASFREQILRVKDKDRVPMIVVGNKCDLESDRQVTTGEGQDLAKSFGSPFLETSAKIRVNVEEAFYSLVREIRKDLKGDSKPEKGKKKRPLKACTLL
UniProt P34149: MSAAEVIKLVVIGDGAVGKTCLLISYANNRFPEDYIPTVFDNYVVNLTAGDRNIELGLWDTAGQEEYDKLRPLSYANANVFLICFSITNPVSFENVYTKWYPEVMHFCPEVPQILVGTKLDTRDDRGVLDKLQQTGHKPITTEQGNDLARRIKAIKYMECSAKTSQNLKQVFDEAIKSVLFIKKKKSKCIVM
UniProt Q9GPS3: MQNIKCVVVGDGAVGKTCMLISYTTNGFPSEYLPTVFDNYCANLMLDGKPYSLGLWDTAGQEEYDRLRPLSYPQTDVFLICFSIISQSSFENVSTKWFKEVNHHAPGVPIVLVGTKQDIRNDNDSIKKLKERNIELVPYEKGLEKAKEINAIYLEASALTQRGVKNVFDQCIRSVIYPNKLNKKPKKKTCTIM

No constants are given. Whether binding was seen depends on the method and setting. For part of these data: Binding seen in cells or lysates may run through a third protein. Some binding calls cover weakened binding; strength is not graded here. Where a sequence is shown, tags or fusion partners need not be part of it.

Experiment [1] has as its target RapA purified from E. coli (loaded with mGppNHp or mGDP) (Dictyostelium discoideum) (UniProt P18613). Nature of the experiment: guanine nucleotide dissociation inhibition (GDI) assay; RapA bound to mGDP instead of mGppNHp, in the presence of GST-ARM; both purified.
Experiment [2] has as its target RasG loaded with mGppNHp (Dictyostelium discoideum) (UniProt P15064). Nature of the experiment: guanine nucleotide dissociation inhibition (GDI) assay; G-protein loaded with mGppNHp incubated with an excess of unlabelled nucleotide; decay of fluorescence (kobs) at varying concentrations of GST-ARM; both purified.
The target of experiment [3] is T1, RasC loaded with mGppNHp (Dictyostelium discoideum) (UniProt P32253).
T1 sequence: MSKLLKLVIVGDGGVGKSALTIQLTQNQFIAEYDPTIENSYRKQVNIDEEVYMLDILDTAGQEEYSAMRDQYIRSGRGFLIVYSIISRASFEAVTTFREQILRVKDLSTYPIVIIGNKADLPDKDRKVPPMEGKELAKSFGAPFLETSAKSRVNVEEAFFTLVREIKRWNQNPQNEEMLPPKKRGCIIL
The description is as above.

Experiment [4] concerns the target T2, GST-RacL (Dictyostelium discoideum) (UniProt Q9GPQ8).
T2 sequence: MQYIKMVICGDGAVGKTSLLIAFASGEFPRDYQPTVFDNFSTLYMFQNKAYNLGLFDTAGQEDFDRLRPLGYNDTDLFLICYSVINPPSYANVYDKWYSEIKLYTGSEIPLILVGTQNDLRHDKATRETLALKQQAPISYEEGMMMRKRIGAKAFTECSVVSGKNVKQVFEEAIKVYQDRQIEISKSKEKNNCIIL
Nature of the experiment: pull-down; purified GST-Rac proteins coupled to GSH beads, incubated with pre-cleared lysate of vegetative GFP-GxcC Dictyostelium cells in the presence of EDTA, 4°C for 1 hour; anti-GFP and anti-GST western blot; only the target purified. (In general: A western blot detects proteins with antibodies after separation by electrophoresis.)

The target in experiment [5] is GST-RacC (Dictyostelium discoideum) (UniProt P34149). Described as above.
In experiment [6] the target is T3, GST-RacG (Dictyostelium discoideum) (UniProt Q9GPS0).
T3 sequence: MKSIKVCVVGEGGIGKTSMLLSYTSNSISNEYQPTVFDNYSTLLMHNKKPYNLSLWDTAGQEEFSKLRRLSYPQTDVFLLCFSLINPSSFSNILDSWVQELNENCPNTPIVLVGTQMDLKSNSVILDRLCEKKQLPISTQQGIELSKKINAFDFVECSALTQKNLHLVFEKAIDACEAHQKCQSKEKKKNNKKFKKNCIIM
The experiment is described as above.

For experiment [7], the target named is GST-Rac1A (Dictyostelium discoideum) (UniProt P34144). The description is as above.
In experiment [8] the target is GST-RacF2 (Dictyostelium discoideum) (UniProt Q9GPS3). The description is as above.
The target of experiment [9] is T4, GST-RacE (Dictyostelium discoideum) (UniProt Q23862).
T4 sequence: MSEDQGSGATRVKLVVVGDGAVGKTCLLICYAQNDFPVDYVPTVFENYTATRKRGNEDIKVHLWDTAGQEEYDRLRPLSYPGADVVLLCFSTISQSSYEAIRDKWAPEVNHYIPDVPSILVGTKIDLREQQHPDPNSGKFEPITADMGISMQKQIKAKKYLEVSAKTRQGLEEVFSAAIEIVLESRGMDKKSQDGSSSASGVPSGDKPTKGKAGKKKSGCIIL
The description is as above.

B1: NtermGxcC (aa 1-633), recombinant GST-ARM purified from E. coli (domain or fragment, UniProt Q54P24 1-633)
chain: MPIQFDAGLEQQVNQFLGDVDDFLTVKTGTTVDKLKSLLNCEEKSISYNAIAFLAFANQAAVNKDASREAGLIKLFLEFCHPSKIITVLPMVKHASMGLMFLANHSDENKKEIGDLKGIDTIFELLRDLLVMIKSPPEDVKKEDIVSSISQSLNLVIFLASLQSNREVMGTVQNFLVLNSLLAYENPQSLDLQLQIQEKALSATNNICMHKENKENCRVAGCIENVLKLLKSTKPSIQDSSLRMLYNMTITDANREAIRRCKGLETLASMLSGQAEALTLLSLKALSNMAVDRQTIEYAVANQESVLQPIYGVFPSSYGQGCSDALLDQVLTVIQNLVSEENLIDTVAKSGIIAKLVGATKGMPLTNTTHQSILVKASCIISALITIEEVQQAAVEQGVITLLVEMIQLPSAEVRREAARALANATPYYDDVRAEIGAQGGVKLCVDLLLQADKELVKQAARALVNLARNTHNEEKLYESKGLEHSIRLINSPEKDLKMLGTKLLVNLSLNEQARIAFCQKGGLSIVVQLLTSSDPELQLQGTKIATNLAISGRNRKVMNEQAPDLIPALKALVNSSVSDIKLQSEVSLNNLAFPYEASYEGLDQMEDAMPIFMQSSQYERDDDDEDDEDEAE
On to B1, for which the binding result in experiment [1] was “no binding (condition: RapA bound to mGDP)”; in experiment [2] it was “no binding”; in [3] it was “no binding”.

B2: GFP-GxcC (protein, UniProt Q54P24 1-1215)
chain: MPIQFDAGLEQQVNQFLGDVDDFLTVKTGTTVDKLKSLLNCEEKSISYNAIAFLAFANQAAVNKDASREAGLIKLFLEFCHPSKIITVLPMVKHASMGLMFLANHSDENKKEIGDLKGIDTIFELLRDLLVMIKSPPEDVKKEDIVSSISQSLNLVIFLASLQSNREVMGTVQNFLVLNSLLAYENPQSLDLQLQIQEKALSATNNICMHKENKENCRVAGCIENVLKLLKSTKPSIQDSSLRMLYNMTITDANREAIRRCKGLETLASMLSGQAEALTLLSLKALSNMAVDRQTIEYAVANQESVLQPIYGVFPSSYGQGCSDALLDQVLTVIQNLVSEENLIDTVAKSGIIAKLVGATKGMPLTNTTHQSILVKASCIISALITIEEVQQAAVEQGVITLLVEMIQLPSAEVRREAARALANATPYYDDVRAEIGAQGGVKLCVDLLLQADKELVKQAARALVNLARNTHNEEKLYESKGLEHSIRLINSPEKDLKMLGTKLLVNLSLNEQARIAFCQKGGLSIVVQLLTSSDPELQLQGTKIATNLAISGRNRKVMNEQAPDLIPALKALVNSSVSDIKLQSEVSLNNLAFPYEASYEGLDQMEDAMPIFMQSSQYERDDDDEDDEDEAEKDERRRQEEEELRLAAEKEVEERKRIMQEEVKRIEERRKAEHEKRLQEEQELRQKKEEAEKLRLAQEAMEKLRLEQEAAAAAEAEKIRLAEEQRIIKEKEVAEQERIKQLTEQQKQKEEEEAKIALEKAKKEEAERLEKAEALRLQKEQEERIRKEKEIEAERLRVQEEERLAKERQAEEDRMRAVEEEKLKLMEAEIKQREEDIRRQKIEEEERRKREEQEKKLKDQQDKASQESARLAQEAARAQKRTHIVQEIMQVEVNYVKNLTLMVRKFLHPLAQLSTSKRPLLTPDRITQIFSTIENIQNHNSIFSDGLTSRIKRWLADNKKDHLIIGDIFQKIGGFMQDYSKYINNYNQSIKTYNETKKTNLPFAQFIKKVESDPELNDRELENLLITPVQQLPRYIMLIQDLIRNTHDDHPDYKPLTEALDKIKHITTIINEKKRDAEDAFAMLQIHQQVHGKVPNNFVTPHRKFIREGAVHFGSSSGSFKDKDPIVFLFNDMVMMTIKHPNKPNEYKYRYSCQFSTTTTIEELPSVNNGFIIKSNQWWSFSCSTPQEKTSWMETIQKSLTNLPKESKVLTSKK
Consider B2, for which the binding result in [4] is on record as “binds”; in experiment [5], “binds weakly”; in [6], “binds”; in [7], “binds weakly”; in experiment [8] it was “binds weakly”; in [9] it was “binds”.
